Results from the supplement of paper PMC11417369.
Some of the results follow.

system: PfHDP1 homeodomain (GST-tagged); experiment: gcPBM binding intensity (ln(normalized median fluorescence intensity)); higher = stronger DNA binding
Outline: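 Using an Agilent 4 × 180k array, primer-extended double-stranded 36-bp intergenic genomic probes and negative controls were exposed for 1 h to GST-fused P. falciparum DNA-binding domains expressed in E. coli. Binding was carried out in 1× PBS with 1% milk, 0.2 mg/ml BSA, 0.5% salmon testes DNA and 0.03% Triton X-100, and protein was detected with Alexa488 anti-GST antibody and a 488 nm scan. Binding intensity is the highest Masliner-normalised natural-log median intensity across replicate spots of either probe orientation.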

Sequence | gcPBM binding intensity (ln)
ATTCAAAAGATGTATACACACATGTGGATAATATAA [CACACA_site2443] | 7.19
GCACCCTGTATGAATGCACACATTCATAGAATTGCT [CACACA_site5475] | 9.43
AATAACAAAATAGGCACACGCACATATATATATATA [CACACA_site1497] | 9.35
TATTTTTCTTTTTAAAAATATATCACATGAACATTA [XGTACX_negctrl_site183] | 6.12
ACATATAAGATTATGTGTCCACAAAAAAATAAAACA [XGTACX_site2867] | 6.61
TTTTATGTTCTTAATGCACACTTATAAGTATCTTAT [CACACA_site4895] | 10.6
TTTTTTTATTATTCTTATATAAAAATTTTTTTTAAT [CACACA_negctrl_site159] | 6.12
TTTTTAATAACACTTTTGAAAAATAAAATAAAATAA [CACACA_negctrl_site821] | 6.23
CATATCTCAATTTATGCATGCAGGATTTTTCTAATA [TGCATGCA_site516] | 6.58
ACACAAAAAAAAAAAAAAAAAAAAAAAAAAAAGGAA [CACACA_negctrl_site1162] | 5.78
AATATGTACAGACATACACACATATATATATATATA [CACACA_site1222] | 9.32
TTTTTTTTTTTTTGGTGTACATTTATAAAAAAAAAA [XGTACX_site8368] | 6.42
AATAATATAACAGAACAAAACTAAATATACACATAT [TGCATGCA_negctrl_site31] | 6.81
TATTTCATAATAAATTGTACGCGTAGAAAACCATGA [XGTACX_site7506] | 7.3
AAAAAAAAAAAAAACACACACACACGCATACAAAAT [CACACA_site6794] | 6.83
ATATTTTTCTTAAGTACACACTAAATAGAAACTAAA [CACACA_site4191] | 6.45
ATTAATTATATAATATGTACATATTACAAATATATA [XGTACX_site1478] | 6.55
TTATATCTTATAAAATGTACATAAAATATATAATAT [XGTACX_site7647] | 6.4
AACACTTCATACACGTGTACAAATATAATATAGACA [XGTACX_site5671] | 7.02

Sequence | gcPBM binding intensity (ln)
GGAAATAATATTATTACACACCAAAATGTATAAAAA [CACACA_site4036] | 6.28
AAAATATTCACGTGTACATATATATATATATATTAT [TGCATGCA_negctrl_site192] | 6.96
CTAATTAATGGGTACATACACACATATATACATACA [CACACA_site743] | 6.55
ATATTAAAATTAAACGCATGCATATATTATAAAAGA [TGCATGCA_site231] | 6.85
TTCTGTATAACACAAATTTTTTTTTATTCACTCTGT [TGCATGCA_negctrl_site410] | 6.41
TTTTTATCAAATAAATGTACACATATTAAATGAAAT [XGTACX_site555] | 6.6
TTTGTAAGAAATAAATGTACAAAAATTAATTTTTAT [XGTACX_site8983] | 6.21
GAAATTAAATGACATACACACTATATTATAGATTTT [CACACA_site7468] | 6.23
ATATTTAAAAAATGATGTACAAAAATGTAGTCACAC [XGTACX_site6208] | 6.43
TATTTTAATGAATTCACACATATAATTTATTTTATA [CACACA_site4538] | 6.41
GACATAAAATTCAAAGTGCATAAATAAAATAAACCC | 8.73
TTTTTTTTTTTTTTCTGTACAAATTAAATCTACATA [XGTACX_site8285] | 6.65
AAAATACATAGACACACACACACACGGATATAAATA [CACACA_site7643] | 6.78
AATATATATTAATAAAGTACAGGAAATATTTTTACC [XGTACX_site7052] | 7.13
TACTAAAAAATATAAACACACATATATTTTACATAT [CACACA_site2042] | 6.41
TTTAATTTGATAGACACATGCACACGTGCAATACTT [TGCATGCA_site777] | 10.9
ATATATATATATAAATGTACAGATATATTTTTTATT [XGTACX_site5445] | 8.96
ATAGTATCTGGTAGCTGTACGAGTCGTAGAGTGTAA [XGTACX_site4936] | 6.84
ATATAAAACTAATTTCTTTTTCTCCTTTTATTTTGT [CACACA_negctrl_site1251] | 6.05

Sequence | gcPBM binding intensity (ln)
TTAATGTTATATGTGTGTACATATAAGTTTAGTAAA [XGTACX_site4651] | 6.53
TTTTTTTTTTCATTAACACACATAAATATATATATA [CACACA_site5759] | 7.99
TGATTAATAATTTTCTTCATACATTAAACATCTTTT [TGCATGCA_negctrl_site342] | 6.07
CACTAATAGTGGATTACACACATATATCTGTATTTA [CACACA_site5403] | 6.25
TATGTATATTTTAATTGTACGTGTATGGTTGTAAAT [XGTACX_site8738] | 6.88
GAGAAAAATAAATACACACACATAAATAAATACATA [CACACA_site5102] | 6.81
CATGAATATTTATACATGCACACTAAAATAAAGAAT [CACACA_site2412] | 7.78
GAGGGTATAATAAAAGCACACACAAAGATATAAATA [CACACA_site9087] | 6.9
GAAAATATTACATACACGCACACATTAATATATTTA [CACACA_site2604] | 7.15
ACATTTTGTAAAGAATGTACATATATATATATATTC [XGTACX_site8004] | 6.56
TATATATATATATACACACACACACCCCAAAGCGTA [CACACA_site64] | 9.26
AAAAAATGCGACATGTGTACACATATATATATATAT [XGTACX_site1679] | 9.26
CAGTAGTTTTTATGGGTGCAAAACATATATATAACA | 9.47
ATATATATATCAAAATGTACAAAAATAGAATTTAAA [XGTACX_site8292] | 7.58
TACACCCACCAACACACACACACACTAATAAAAAAA [CACACA_site8060] | 7.1
AAAATTAAAATATCACGTACGAAGAAAAAATTAAGA [XGTACX_site6437] | 6.43
CCTTTCCTAGCACATGCACACAAAAAAAAAAAAAAA [CACACA_site8396] | 8.87
AATACATATGGGTGTACACATTATATATATATATAT [CACACA_site4601] | 9.3
